Measurements as given in PubChem BioAssay AID504332 (National Center for Advancing Translational Sciences (NCATS), 2011).
Among all 350,000 compounds or so, about 31,000 (8.9%) were called active. This list was built around the results that the source calls inconclusive (neither active nor inactive); the mix of calls is not that of the screen. Calls come from the whole dose curve; as a rule, active = well fitted inhibition curve with a large enough effect; inconclusive = small, poorly fitted or top-dose-only effect; inactive = no such curve, though single readings can be large or run the other way. Potencies of inconclusive entries are doubtful fits and often do not repeat.

molecular target: Histone-lysine N-methyltransferase EHMT2 (Homo sapiens) (UniProt Q96KQ7); assay: qHTS Assay for Inhibitors of Histone Lysine Methyltransferase G9a; conditions: G9a H3K9 monomethylation, AlphaScreen, 2 h; activity, negative = inhibition: at 59 µM (top of the series) unless noted; note: nearly all actives have a fitted effect of over 75% in size
Chain of UniProt Q96KQ7 (Q96KQ7 whole entry, looked up): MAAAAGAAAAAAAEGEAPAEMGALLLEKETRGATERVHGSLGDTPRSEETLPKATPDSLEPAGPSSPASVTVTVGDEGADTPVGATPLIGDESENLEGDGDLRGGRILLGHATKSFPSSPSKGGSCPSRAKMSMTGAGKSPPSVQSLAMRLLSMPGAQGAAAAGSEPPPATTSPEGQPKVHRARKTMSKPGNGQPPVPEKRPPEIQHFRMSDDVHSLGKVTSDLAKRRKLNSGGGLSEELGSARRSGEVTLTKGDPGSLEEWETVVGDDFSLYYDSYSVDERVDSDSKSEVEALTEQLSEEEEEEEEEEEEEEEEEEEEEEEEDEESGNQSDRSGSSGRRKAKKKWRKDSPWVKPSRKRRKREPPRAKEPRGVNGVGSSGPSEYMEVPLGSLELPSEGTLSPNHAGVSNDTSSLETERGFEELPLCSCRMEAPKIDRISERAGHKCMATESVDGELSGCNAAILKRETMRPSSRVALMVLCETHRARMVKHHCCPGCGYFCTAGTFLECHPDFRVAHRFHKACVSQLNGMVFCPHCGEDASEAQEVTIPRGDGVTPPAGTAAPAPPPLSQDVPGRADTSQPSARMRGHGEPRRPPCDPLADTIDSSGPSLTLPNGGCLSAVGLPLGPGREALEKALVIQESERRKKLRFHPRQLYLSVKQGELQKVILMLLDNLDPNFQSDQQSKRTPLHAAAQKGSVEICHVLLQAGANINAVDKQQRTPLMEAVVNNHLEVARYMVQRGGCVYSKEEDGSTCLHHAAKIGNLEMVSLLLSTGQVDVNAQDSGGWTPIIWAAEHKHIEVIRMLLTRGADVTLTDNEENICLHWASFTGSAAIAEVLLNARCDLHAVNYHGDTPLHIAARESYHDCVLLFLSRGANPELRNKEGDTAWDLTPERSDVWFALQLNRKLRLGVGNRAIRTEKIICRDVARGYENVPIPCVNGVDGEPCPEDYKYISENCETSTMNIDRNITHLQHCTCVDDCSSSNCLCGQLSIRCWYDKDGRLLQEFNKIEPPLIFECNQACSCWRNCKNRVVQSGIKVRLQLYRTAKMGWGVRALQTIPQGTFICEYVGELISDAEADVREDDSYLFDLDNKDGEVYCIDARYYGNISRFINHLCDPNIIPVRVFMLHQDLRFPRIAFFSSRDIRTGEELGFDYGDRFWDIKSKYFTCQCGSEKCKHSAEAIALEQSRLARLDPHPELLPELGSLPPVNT
Summary of the method: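 Using a bead-based AlphaScreen, monomethylated H3K9 product from 2 h room-temperature reactions (G9a 20 nM, peptide 500 nM, SAM 20 uM) was detected with 0.5 ug/mL rabbit anti-H3K9me1 antibody.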
% is set by controls: 0 for no effect and ±100 for the full control effect; potency is the fitted concentration of half-maximal effect; tags give direction and shape of the fitted curve.

Compound	Potency	activity, negative = inhibition
CCN=C1SC(CC(=O)Nc2ccc(N3CCOCC3)cc2)C(=O)N1CC (stereo not given)	inconclusive: 56.2 µM [inhibitor, partial curve, poor fit]	
CN1c2ccccc2N(C)C1(C)c1cccc2ccccc12	active: 1.41 µM	
S=c1ccc2ccccc2[nH]1	active: 4.47 µM	
CN(C)CCNC(=O)c1cccc(S(=O)(=O)Nc2ccc(F)cc2)c1	inconclusive: 50.1 µM [inhibitor, partial curve, poor fit]	
CC(C)C(=O)Nc1nnc(S(=O)(=O)N(C)Cc2ccc(F)cc2)s1	inconclusive: 6.31 µM [inhibitor, single point]	
COc1cc(/C=N/NC(=O)NC23CC4CC(CC(C4)C2)C3)ccc1O	active: 56.2 µM	
CCN(c1ccccc1)S(=O)(=O)c1ccc(OC)c(NC(=O)CCc2nc3ccccc3c(=O)[nH]2)c1	active: 44.7 µM	
COc1ccc(CC(=O)Nc2ccc(/C(C)=N/NC(=O)c3ccc(OC)cc3OC)cc2)cc1	inactive	
COc1ccccc1CNC(=O)c1ccc(-c2nc(CS(=O)c3ccc(C)cc3)c(C)o2)cc1 (stereo not given)	inconclusive: 39.8 µM [inhibitor, partial curve, poor fit]	
CCN1C/C(=C/c2ccc(OC)c(O)c2)C(=O)/C(=C/c2ccc(OC)c(O)c2)C1	inconclusive: 100 µM [inhibitor, single point]	
CC(=O)c1sc(NC(=O)CS(=O)(=O)c2ccccc2)nc1C	inconclusive: 79.4 µM [inhibitor, partial curve, poor fit]	
Cc1cccc(NC(=O)CN(CCc2ccccc2)S(C)(=O)=O)c1	inactive	
Cc1cccc(NS(=O)(=O)c2ccc3c(c2)OCCO3)c1	inconclusive: 1.58 µM [inhibitor, partial curve, poor fit]	
Cc1cc(C)cc(NC(=O)c2cn3c4c(ccc(Cl)c4c2=O)OC(C)C3)c1 (stereo not given)	inconclusive: 28.2 µM [inhibitor, partial curve, poor fit]	
CCN1CCN(CCCNC(=O)c2cn(CCOC)c(=O)c3c2c2ccccc2n3C)CC1	inconclusive: 50.1 µM [inhibitor, partial curve, poor fit]	
CCOC(=O)c1c(-c2ccccc2)oc2ccc(O)c(CN(C)C)c12	inconclusive: 89.1 µM [inhibitor, single point]	
Cc1cc(SCc2c(F)cccc2Cl)nc(=O)[nH]1		inactive: -5.25% [at 0.501 µM]
Cc1cccc(NC(=O)c2cccnc2)c1	inconclusive: 79.4 µM [inhibitor, partial curve, poor fit]	
CCOc1ccccc1C(=O)Nc1nn[nH]n1	active: 25.1 µM	
COc1ccccc1/C=C/C1=NC(=C\N(C)C)/C(=O)O1	inactive	
C=CCN(C(=O)Nc1ccc2c(c1)nc(C)n2C)c1ccccc1		inactive: 10.6% [at 12.7 µM]
O=C(CCN=C1NS(=O)(=O)c2ccccc21)OCC(=O)c1ccc(F)c(F)c1	inconclusive: 56.2 µM [inhibitor, partial curve]	
COc1ccc(CNC(=O)Nc2cccc(Cl)c2)cc1	inconclusive: 44.7 µM [inhibitor, partial curve, poor fit]	
Nc1ccc(C(=O)Nc2nc3ccccc3s2)cc1	inactive	

Compound	Potency	activity, negative = inhibition
Cc1cc(NC(=O)CSc2ncccn2)no1	inconclusive: 22.4 µM [inhibitor, single point]	
CCOC(=O)c1c(-c2ccccc2)csc1NC(=S)N(CC)CC	active: 22.4 µM	
C[N+]1(CC(O)COc2ccccc2)CCN(C(=O)c2ccc([N+](=O)[O-])cc2)CC1 (stereo not given)	active: 6.31 µM	
COC(=O)CC(=O)CSc1nc2cc(C(=O)NC(C)C)ccc2c(=O)n1CCc1ccccc1	inactive	
Cc1ccc(C(=O)OC2=C(C(=O)c3ccccc3)N(C)S(=O)(=O)c3ccccc32)cc1	inconclusive: 10 µM [inhibitor, partial curve, poor fit]	
COc1cccc(-c2cc(=O)c3cc(NC(=O)c4ccc(N(C)C)cc4)ccc3[nH]2)c1	active: 31.6 µM	
O=C(N/N=C/C(Cl)=C/c1ccccc1)c1ccccc1F	active: 31.6 µM	
CN(C)CCOCCOc1ccccc1-c1ccccc1		inactive: -33.8% [at 0.501 µM]
C=CCSc1nc2c(c(=O)[nH]c(=O)n2C)n1C(C)C	inconclusive: 3.16 µM [inhibitor, partial curve, poor fit]	
CCC(C)[C@@H](C(=O)Nc1ccc(OC)c(OC)c1)N1Cc2ccccc2C1=O (stereo not given in full)	inconclusive: 89.1 µM [inhibitor, single point]	
CC1CN(CCCOc2ccccc2[N+](=O)[O-])CC(C)O1 (stereo not given)		inactive: 27% [at 0.501 µM]
Cc1cccc2cc(CN(Cc3ccco3)C(=O)c3cccs3)c(=O)[nH]c12		inactive: -27.2% [at 12.7 µM]
Cc1cc(C(=O)CSc2nn3c(=O)c(C(C)(C)C)nnc3s2)c(C)n1C	inconclusive: 56.2 µM [inhibitor, single point]	
CN(CCOc1ccccc1)C(=O)c1cc(-c2ccco2)nc2ccccc12	inconclusive: 8.91 µM [inhibitor, single point]	
COc1ccccc1-n1cc(-c2ccccc2)c2c(=S)nc[nH]c21	inactive	
CCN(C(=O)CSc1nnc(-c2cc3occc3n2C)n1-c1ccccc1C)c1ccccc1	inactive	
COc1cc(Cl)c(C)cc1NC(=O)CNC(=O)Cn1ccc2ccccc2c1=O	inactive	
CC1Cc2ccccc2N1CC(=O)NC(=O)NCc1ccco1 (stereo not given)	inconclusive: 4.47 µM [inhibitor, single point]	
O=C(O)C1CCCC2CN3CCc4c([nH]c5ccccc45)C3C(O)C21 (stereo not given)	inconclusive: 89.1 µM [inhibitor, single point]	
Cc1ccc(NC2=C([N+](=O)[O-])CS(=O)(=O)C2)cc1	inconclusive: 89.1 µM [inhibitor, single point]	
Cc1ccc2c(c1)Sc1ccccc1CC2=O	inactive	
Cc1ccc(Cn2c(C(=O)Nc3ccc(Cl)cc3)cc3sccc32)cc1	inconclusive: 39.8 µM [inhibitor, single point]	
CCc1ccccc1OCc1nc2ccc(S(=O)(=O)N3CCOCC3)cc2[nH]1	inconclusive: 22.4 µM [inhibitor, single point]	
O=c1oc2c3c4c(cc2s1)CCCN4CCC3	active: 7.94 µM	

Compound	Potency	activity, negative = inhibition
CC(C)Oc1ccc(CNC(=O)c2cc3cccc4c3n2CC(C)S4)cc1 (stereo not given)	inactive	
Cc1ccc(Cl)cc1NC(=S)N(CCCN1CCN(C)CC1)Cc1cccs1	inconclusive: 3.55 µM [inhibitor, full curve, poor fit]	
COc1ccc(/C=C2\CCn3c2nc2cc(C(=O)O)ccc2c3=O)cc1O	inconclusive: 39.8 µM [inhibitor, single point]	
N#CCC(=O)NC(=O)NCC1CC1	active: 39.8 µM	
CCOC(=O)N1CCC(NC(=O)c2ccc3c(c2)N(Cc2ccccc2)C(=O)c2ccccc2S3(=O)=O)CC1	inconclusive: 8.91 µM [inhibitor, partial curve, poor fit]	
Cc1c(C(=O)NCc2ccccc2Cl)sc2nc3n(c(=O)c12)CCCC3	inconclusive: 22.4 µM [inhibitor, single point]	
CCOC(=O)C1CCCN(C(=O)/C=C/c2ccccc2[N+](=O)[O-])C1 (stereo not given)	inactive	
O=C(CN1CCN(c2ccccc2O)CC1)NC(=O)NCc1ccccc1		inactive: -1.41% [at 12.7 µM]
Cc1nc(N(C)Cc2ccccc2)c2c(C)c(C)sc2n1	inconclusive: 89.1 µM [inhibitor, single point]	
Cc1ccc(-c2csc(N(CCCN3CCOCC3)C(=O)c3ccco3)n2)cc1	inconclusive: 50.1 µM [inhibitor, partial curve, poor fit]	
O=C(c1coc(=O)c(Br)c1)N1CCC(C(O)(c2ccccc2)c2ccccc2)CC1	inactive	
COc1ccc(/C(O)=C2\C(=O)C(=O)N(c3cc(C)on3)C2c2cccc(OC)c2OC)cc1C (stereo not given)	active: 50.1 µM	
COc1ccc(C2c3c(n(C)c4ccccc34)C(=O)N2CC(=O)Nc2c(C)cc(C)cc2C)cc1 (stereo not given)	inconclusive: 3.98 µM [inhibitor, partial curve, poor fit]	
Cc1nn(-c2ccc(F)cc2)c(Cl)c1/C=C/C(=O)OCC(=O)Nc1ccc(F)cc1F	inconclusive: 89.1 µM [inhibitor, single point]	
CC(C)Cn1cc(NC(=O)NCc2ccc(Cl)cc2)c2ccccc2c1=O	inconclusive: 3.55 µM [inhibitor, partial curve, poor fit]	
Cn1nc(-c2ccc(N3CCCCC3)c(NC(=O)c3ccco3)c2)c2ccccc2c1=O	active: 39.8 µM	
CN(CC(=O)Nc1ccccc1N1CCCC1)S(=O)(=O)c1ccc(F)cc1		inactive: -17.5% [at 2.33 µM]
COCCCNc1nc2c(c(=O)n(Cc3ccccc3)c(=O)n2C)n1C	inactive	
Cc1cc2c(cc1C)-c1c(ssc1=Nc1ccc(S(N)(=O)=O)cc1)C(C)(C)N2	inconclusive: 8.91 µM [inhibitor, single point]	
COc1ccc(C(=O)CN2CCN(S(=O)(=O)c3ccc(F)cc3)CC2)cc1	inconclusive: 28.2 µM [inhibitor, single point]	
C[C@@H]1[C@H]2[C@@H](O[C@@H]3O[C@H](CO)[C@@H](O)[C@H](O)[C@H]3O)OC=C(C(=O)O)[C@H]2C[C@@H]1O		inactive: -0.907% [at 12.7 µM]
CCn1nc(C)c(CNC(=O)c2cc(COc3ccc(F)cc3Cl)on2)c1C	inactive	
